Laboratory results: the supplement of paper PMC6609913
Counter-ions that a name gives are not always drawn. ± gives the standard deviation of the averaged measurements. The full ranking holds about 1,300 compounds; the median of “normalised cell viability” is about 1, and the lowest 2% start at about 0.14. The list shows a part of the results.

Tested on: V-C8 (BRCA2-deficient hamster cells)
Assay: normalised cell viability (fraction of plate median); higher = more viable cells (less toxic)
Details: 5 µM
In short: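 Hamster V-C8 cells with and without restored BRCA2 were exposed in 96-well plates to library drugs at 5 μM for 3 days (screen 1) or 6 days (screen 2). Cell viability was scored by resazurin assay, then median-plate normalised, averaging triplicate wells.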

SMILES | normalised cell viability (treatment time: 3 days) | normalised cell viability (treatment time: 6 days)
CC(C)NCC(O)COc1ccc(CCOCC2CC2)cc1 (stereo not drawn) [Betaxolol hydrochloride] | 0.1577 ± 0.00096 | 0.136 ± 0.014
CCc1nc(N)nc(N)c1-c1ccc(Cl)cc1 [Pyrimethamine] | 0.424 ± 0.0062 | 0.393 ± 0.013
CC(=O)[C@@]1(O)CC[C@H]2[C@@H]3C[C@H](C)C4=CC(=O)C=C[C@]4(C)[C@@]3(F)[C@@H](O)C[C@@]21C [Fluorometholone] | 0.861 ± 0.029 | 0.903 ± 0.044
C1CCC(C(CC2CCCCN2)C2CCCCC2)CC1 (stereo not drawn) [Perhexiline maleate] | 0.126 ± 0.011 | 0.109 ± 0.0083
Cn1cnc2c1c(=O)[nH]c(=O)n2C [Theobromine] | 0.928 ± 0.036 | 1.06 ± 0.051
CCN(CC)CCNC(=O)c1cc(Cl)c(N)cc1OC [Metoclopramide monohydrochloride] | 1.02 ± 0.038 | 0.992 ± 0.045
CCOc1ccc2ccccc2c1C(=O)N[C@@H]1C(=O)N2[C@@H]1SC(C)(C)[C@@H]2C(=O)O [Nafcillin sodium salt monohydrate] | 0.999 ± 0.021 | 1.03 ± 0.034
CC(C)(CO)C(O)C(=O)NCCCO (stereo not drawn) [Panthenol (D)] | 1.06 ± 0.036 | 1.02 ± 0.04
CN(C)C/C=C(/c1ccc(Br)cc1)c1cccnc1 [Zimelidine dihydrochloride monohydrate] | 1.11 ± 0.082 | 1.05 ± 0.028
C=C1/C(=C\C=C2/CCC[C@]3(C)[C@@H]([C@H](C)CCCC(C)C)CC[C@@H]23)C[C@@H](O)C[C@@H]1O [Alfacalcidol] | 1.04 ± 0.058 | 0.966 ± 0.094
Cc1ccc2c(c1)c1c3n2CCNC3CCC1 (stereo not drawn) [Pirlindole mesylate] | 0.904 ± 0.084 | 0.9725 ± 0.0077
CCC[C@@H]1C[C@@H](C(=O)N[C@@H]([C@H]2O[C@H](SC)[C@H](O)[C@@H](O)[C@H]2O)[C@H](C)Cl)N(C)C1 [Clindamycin hydrochloride] | 1.17 ± 0.044 | 1.09 ± 0.04
O=C(N[C@H](CO)[C@H](O)c1ccc([N+](=O)[O-])cc1)C(Cl)Cl [Chloramphenicol] | 0.748 ± 0.028 | 0.741 ± 0.016
CN(C)CCC=C1c2ccccc2COc2ccccc21 [Doxepin hydrochloride] | 1.04 ± 0.098 | 1.04 ± 0.024
CC(C)[N+](C)(CCOC(=O)C1c2ccccc2Oc2ccccc21)C(C)C [Propantheline bromide] | 1.03 ± 0.012 | 0.901 ± 0.067
Nc1ccccc1S(N)(=O)=O [2-Aminobenzenesulfonamide] | 1.01 ± 0.054 | 1.008 ± 0.0056
COc1ccccc1Oc1c(NS(=O)(=O)c2ccc(C(C)(C)C)cc2)nc(-c2ncccn2)nc1OCCO [Bosentan] | 1.13 ± 0.13 | 1.07 ± 0.046
NS(=O)(=O)c1cc2c(cc1Cl)NC(C(Cl)Cl)NS2(=O)=O (stereo not drawn) [Trichlormethiazide] | 1.02 ± 0.021 | 0.974 ± 0.052
CN[C@@H]1[C@H](O)[C@H](NC)[C@H]2O[C@@]3(O)C(=O)C[C@@H](C)O[C@H]3O[C@@H]2[C@H]1O [Spectinomycin dihydrochloride] | 1.01 ± 0.027 | 1.08 ± 0.031
N#Cc1ccc(C2CCCc3cncn32)cc1 (stereo not drawn) [Fadrozole hydrochloride] | 1.01 ± 0.087 | 0.97 ± 0.079
Cc1onc(-c2ccccc2Cl)c1C(=O)N[C@@H]1C(=O)N2[C@@H]1SC(C)(C)[C@@H]2C(=O)O [Cloxacillin sodium salt] | 1.02 ± 0.046 | 1 ± 0.038
N[C@@H](C(=O)N[C@@H]1C(=O)N2C(C(=O)O)=C(Cl)CC[C@H]12)c1ccccc1 [Loracarbef] | 1.05 ± 0.1 | 1.06 ± 0.033

SMILES | normalised cell viability (treatment time: 3 days) | normalised cell viability (treatment time: 6 days)
C#Cc1cccc(Nc2ncnc3cc(OCCOC)c(OCCOC)cc23)c1 [Erlotinib] | 0.923 ± 0.064 | 0.782 ± 0.15
CN[C@@H]1[C@@H](O[C@H]2O[C@H](CO)[C@@H](N)[C@H](O)[C@H]2O)OC2C[C@@H](N)[C@@H](O[C@H]3[C@H](O)[C@@H](O)[C@H](N)C[C@@H]3N)OC2[C@@H]1O (stereo partly drawn) [Apramycin] | 0.995 ± 0.057 | 1.03 ± 0.019
Cc1c(-c2ccccc2)oc2c(C(=O)OCCN3CCCCC3)cccc2c1=O [Flavoxate hydrochloride] | 0.94 ± 0.044 | 1.02 ± 0.072
CCCN(CCC)S(=O)(=O)c1ccc(C(=O)O)cc1 [Probenecid] | 1 ± 0.029 | 1.07 ± 0.071
C[C@]12CC[C@@H]3c4ccc(O)cc4CC[C@H]3[C@@H]1CC[C@@H]2O [Estradiol-17 beta] | 1 ± 0.038 | 1.1 ± 0.042
COc1ccc2[nH]c([S+]([O-])Cc3ncc(C)c(OC)c3C)nc2n1 (stereo not drawn) [Tenatoprazole] | 1 ± 0.16 | 0.978 ± 0.072
CN(C)CCOC(c1ccccc1)c1ccccc1 [Diphenhydramine hydrochloride] | 1.06 ± 0.099 | 1 ± 0.028
NC(Cc1cc(I)c(Oc2cc(I)c(O)c(I)c2)c(I)c1)C(=O)O (stereo not drawn) [Thyroxine (L)] | 0.87 ± 0.017 | 0.875 ± 0.044
CN(C)CC/C=C1/c2ccccc2Sc2ccc(Cl)cc21 [Chlorprothixene hydrochloride] | 0.971 ± 0.045 | 0.948 ± 0.064
CC(=O)[C@H]1CC[C@H]2[C@@H]3CCC4=CC(=O)CC[C@]4(C)[C@H]3CC[C@]12C [Progesterone] | 0.956 ± 0.063 | 0.989 ± 0.18
N=C(N)NC(=O)Cc1c(Cl)cccc1Cl [Guanfacine hydrochloride] | 1.1 ± 0.039 | 0.966 ± 0.034
CC(=O)O[C@@]12CO[C@@H]1C[C@H](O)[C@@]1(C)C(=O)[C@H](O)C3=C(C)[C@@H](OC(=O)[C@H](O)[C@@H](NC(=O)OC(C)(C)C)c4ccccc4)C[C@@](O)([C@@H](OC(=O)c4ccccc4)[C@H]21)C3(C)C [Docetaxel] | 0.233 ± 0.014 | 0.238 ± 0.0079
Nc1ccn([C@@H]2O[C@H](CO)[C@@H](O)C2(F)F)c(=O)n1 [Gemcitabine] | 0.176 ± 0.02 | 0.196 ± 0.02
CN1C(=O)CC(c2ccccc2)C1=O (stereo not drawn) [Phensuximide] | 1.2 ± 0.15 | 1.05 ± 0.069
CC1CNc2c(cccc2S(=O)(=O)N[C@@H](CCCNC(=N)N)C(=O)N2CC[C@@H](C)C[C@@H]2C(=O)O)C1 (stereo partly drawn) [Argatroban] | 1.13 ± 0.092 | 1.19 ± 0.1
CN(C)CCN(Cc1ccccc1)c1ccccn1 [Tripelennamine hydrochloride] | 1.03 ± 0.027 | 1 ± 0.12
Clc1ccc(CSC(Cn2ccnc2)c2ccc(Cl)cc2Cl)cc1 (stereo not drawn) [Sulconazole nitrate] | 0.983 ± 0.067 | 0.829 ± 0.043
CC(=O)O[C@]1(C(C)=O)CC[C@H]2[C@@H]3C=C(Cl)C4=CC(=O)[C@@H]5C[C@@H]5[C@]4(C)[C@H]3CC[C@@]21C [Cyproterone acetate] | 0.903 ± 0.021 | 0.978 ± 0.02
Clc1ccc(CO/N=C(\Cn2ccnc2)c2ccc(Cl)cc2Cl)c(Cl)c1 [Oxiconazole Nitrate] | 0.807 ± 0.043 | 0.898 ± 0.043
C#C[C@]1(OC(C)=O)CC[C@H]2[C@@H]3CCC4=CC(=NO)CC[C@@H]4[C@H]3CC[C@@]21CC (mixture of isomers) [Norgestimate] | 0.909 ± 0.022 | 0.907 ± 0.069
O=C(O)COCCN1CCN(C(c2ccccc2)c2ccc(Cl)cc2)CC1 (stereo not drawn) [Cetirizine dihydrochloride] | 1.08 ± 0.046 | 1.03 ± 0.029
N[C@@H]1CONC1=O [D-cycloserine] | 1.11 ± 0.12 | 0.984 ± 0.042

SMILES | normalised cell viability (treatment time: 3 days) | normalised cell viability (treatment time: 6 days)
Clc1ccc(Cn2c(CN3CCCC3)nc3ccccc32)cc1 [Clemizole hydrochloride] | 1.16 ± 0.017 | 1.12 ± 0.15
COc1cc2nc(N(C)CCCNC(=O)C3CCCO3)nc(N)c2cc1OC (stereo not drawn) [Alfuzosin hydrochloride] | 0.987 ± 0.056 | 1.08 ± 0.08
N=C(N)NS(=O)(=O)c1ccc(N)cc1 [Sulfaguanidine] | 1.2 ± 0.28 | 0.984 ± 0.012
CC(=O)Oc1ccccc1C(=O)O [Acetylsalicylic acid] | 1.03 ± 0.043 | 0.986 ± 0.093
NC(=O)c1cc[n+](CC2=C(C(=O)[O-])N3C(=O)[C@@H](NC(=O)[C@@H](c4ccccc4)S(=O)(=O)O)[C@H]3SC2)cc1 [Cefsulodin sodium salt] | 0.996 ± 0.048 | 0.979 ± 0.072
CC1=C(/C=C/C(C)=C/C=C/C(C)=C/C(=O)O)C(C)(C)CCC1 [Retinoic acid] | 1.03 ± 0.036 | 0.985 ± 0.044
CCC1(c2ccccc2)NC(=O)N(C)C1=O (stereo not drawn) [Mephenytoin] | 1.09 ± 0.041 | 1.17 ± 0.38
CCc1c(C)[nH]c2c1C(=O)C(CN1CCOCC1)CC2 (stereo not drawn) [Molindone hydrochloride] | 1.09 ± 0.1 | 1.08 ± 0.087
Cc1ncc(CO)c(CO)c1O [Pyridoxine hydrochloride] | 1.09 ± 0.016 | 1.12 ± 0.017
Cc1cc(C(C)(C)C)c(O)c(C)c1CC1=NCCN1 [Oxymetazoline hydrochloride] | 0.96 ± 0.02 | 1.01 ± 0.068
CN(C)CCCN1c2ccccc2Sc2ccccc21 [Promazine hydrochloride] | 0.989 ± 0.078 | 0.91 ± 0.061
NS(=O)(=O)c1cc(C(=O)O)cc(N2CCCC2)c1Oc1ccccc1 [Piretanide] | 0.93 ± 0.097 | 1.06 ± 0.15
CC(C)(C(=O)O)c1ccc(C(O)CCCN2CCC(C(O)(c3ccccc3)c3ccccc3)CC2)cc1 (stereo not drawn) [Fexofenadine HCl] | 1.09 ± 0.02 | 1.04 ± 0.046
COc1ccc([C@@H]2CC(=O)c3c(O)cc(O[C@@H]4O[C@H](CO[C@@H]5O[C@@H](C)[C@H](O)[C@@H](O)[C@H]5O)[C@@H](O)[C@H](O)[C@H]4O)cc3O2)cc1O [Hesperidin] | 1.05 ± 0.13 | 1.13 ± 0.053
COC(c1ccccc1)(c1ccccc1)[C@H](Oc1nc(C)cc(C)n1)C(=O)O [Ambrisentan] | 1.04 ± 0.029 | 1.04 ± 0.033
Cc1c(C)c2c(c(C)c1O)CCC(C)(COc1ccc(CC3SC(=O)NC3=O)cc1)O2 (stereo not drawn) [Troglitazone] | 0.68 ± 0.04 | 0.588 ± 0.04
CC(C(=O)O)c1ccc2c(c1)Cc1cccnc1O2 (stereo not drawn) [Pranoprofen] | 1.11 ± 0.043 | 1.05 ± 0.046
CSc1ccc2c(c1)C(N1CCN(C)CC1)Cc1ccccc1S2 (stereo not drawn) [Methiothepin maleate] | 0.293 ± 0.035 | 0.401 ± 0.028
COC(=O)Nc1nc2cc(C(=O)c3ccccc3)ccc2[nH]1 [Mebendazole] | 0.164 ± 0.0056 | 0.13 ± 0.0086
CC(C)c1ccc2oc3nc(N)c(C(=O)O)cc3c(=O)c2c1 [Amlexanox] | 0.933 ± 0.034 | 1.03 ± 0.089
